This note sets out measurements from US20260137794A1, “LIGAND-DRUG CONJUGATE AND USE THEREOF” (SYSTIMMUNE, INC., priority 2022, published 2026).

Assay [1] deals with Trop2 high-expression cell line and negative cell line. Nature of the assay: Trop2 cell killing experiment, conclusion over the 2 cell models. The class given is cell-based, Human. Conditions: in words; N87 and A431+SW620. Here is the method: Pharmacodynamic test at cellular level: cell plating was performed on a 96-well plate in a certain density. After the cells adhered to the wall (usually taking at least 4 h), a series of drugs in several folds of dilution were added to each well plate to act for a certain period of time, for killing the cells. At the end of action of the drugs, a certain amount of MTS was added to react at 37° C. under 5% CO2 for 1-4 h. After color development using the MTS reagent, the OD 490 nm absorbance value was detected using a microplate reader, and then the IC50 for cell killing was analyzed and calculated. […]
Taking a Trop2 high-expression cell line N87 and a heterogeneous tumor cancer cell A431+SW620 as target cells respectively, the Trop2 expression level of the target cell was firstly determined by flow analysis, and then the cell killing activity of the Trop2 dual-drug ADC was evaluated by MTS method. […]

For assay [2], the system named is heterogeneous tumor cancer cell A431+SW620. Nature of the assay: Trop2 cell killing experiment by MTS method, A431+SW620. The class given is cell-based, Human. The settings on record: A431 + SW620, Trop2 negative, 5 days, read-out: Test drug IC50. Here is the method:
(§1) Pharmacodynamic test at cellular level: cell plating was performed on a 96-well plate in a certain density. After the cells adhered to the wall (usually taking at least 4 h), a series of drugs in several folds of dilution were added to each well plate to act for a certain period of time, for killing the cells. At the end of action of the drugs, a certain amount of MTS was added to react at 37° C. under 5% CO2 for 1-4 h. After color development using the MTS reagent, the OD 490 nm absorbance value was detected using a microplate reader, and then the IC50 for cell killing was analyzed and calculated.
(§2) Before addition, according to the concentration of each test sample, a drug (5×mother liquor concentration) was prepared using a preheated 1% FBS culture medium according to the initial concentration of 5.0 μM, and then diluted according to 10 folds of gradient concentration, totaling 8 detection points, followed by standing for later use. During the preparation, each concentration was uniformly mixed using an oscillator, specifically, oscillating for 2-3 sec at a time, with an interval of 1 sec, and then oscillating again, repeating 2-3 times.
(§3) The final concentration of the antibody and the antibody conjugated drug was 0 (Vehicle), 0.6 pM, 4.25 pM, 29.75 pM, 0.21 nM, 1.46 nM, 10.20 nM, 71.43 nM, 500 nM. […]

The next assay has as its system N87. Nature of the assay: Trop2 cell killing experiment by MTS method, N87. The class given is cell-based, Human. Conditions: N87, Trop2 high expression, 5 days, read-out: Test drug IC50. Here is the method:
as §1, §2, §3
(Tetrazolium assays rely on reduction of a dye to a coloured formazan, in cell work by metabolically active cells.)

The target of assay [3] is recombinant human CD33 protein (human, UniProt P20138 18-259, limits assumed). Description: ELISA, recombinant human CD33 coated on the plate, conjugate titrated 3-fold from 2 ug/mL. A general note: In an ELISA, binding on a coated surface is turned into a signal by an enzyme label.
Sequence of UniProt P20138 (P20138 18-259 limits assumed): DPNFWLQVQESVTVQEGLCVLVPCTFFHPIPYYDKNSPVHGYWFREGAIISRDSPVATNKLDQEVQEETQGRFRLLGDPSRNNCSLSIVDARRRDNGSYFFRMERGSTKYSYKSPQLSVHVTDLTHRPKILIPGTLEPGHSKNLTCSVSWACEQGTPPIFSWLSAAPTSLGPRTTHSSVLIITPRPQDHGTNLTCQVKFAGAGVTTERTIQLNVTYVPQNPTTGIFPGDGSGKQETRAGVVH

The IC50 is the concentration needed to halve the response being measured.

B1: ANTI-Trop2-1 mAb: Naked anti-Trop2 antibody; light chain SEQ ID NO: 3, heavy chain SEQ ID NO: 4 (antibody)
heavy: QVQLVQSGAEVKKPGASVKLSCKASGYTFTSFDINWVRQAPEQRLEWMGWIFPGDGNTKYSQKFQGRATITRDTSASTAYMELSSLRSEDTAVYYCVRGEALYYFDYWGQGTLVTVSS[human IgG1 constant region not spelt out]
light: DIQMTQSPSSLSASVGDRVTITCRASQDINKYLAWYQQKPGKVPKLLIYSTSTLQSGVPSRFSGSGSGTDFTLTISSLQPEDVATYYCLQYDDLFTFGQGTKLEIKRTVAAPSVFIFPPSDEQLKSGTASVVCLLNNFYPREAKVQWKVDNALQSGNSQESVTEQDSKDSTYSLSSTLTLSKADYEKHKVYACEVTHQGLSSPVTKSFNRGEC
Consider B1, for which the “killing activity against the two cell lines” value in assay [1] is “no significant killing activity”. The IC50 (in assay [2]; in the assay with N87) was more than 500 nM in each case.

B2: ANTI-Trop2-2 mAb: Naked anti-Trop2 antibody; light chain SEQ ID NO: 5, heavy chain SEQ ID NO: 6 (antibody)
heavy: QVQLVQSGAEVKKPGASVKLSCKASGYTFTSFDINWVRQAPEQRLEWMGWIFPGDGNTKYSQKFQGRATITRDTSASTAYMELSSLRSEDTAVYYCVRGEALYYFDYWGQGTLVTVSS[human IgG1 constant region not spelt out]
light: DIQMTQSPSSLSASVGDRVTITCRASQDINKYLAWYQQKPGKVPKLLIYSTSTLQSGVPSRFSGSGSGTDFTLTISSLQPEDVATYYCLQYDDLFTFGQGTKLEIKRTVAAPSVFIFPPSDEQLKSGTASVVCLLNNFYPREAKVQWKVDNALQSGNSQESVTEQDSKDSTYSLSSTLTLSKADYEKHKVYACEVTHQGLSSPVCTKSFNRGEC
B2: the “killing activity against the two cell lines” value in assay [1] is reported as “no significant killing activity”. In addition, the IC50 (in assay [2]; in the assay with N87) was more than 500 nM throughout.

B3: ANTI-CD33-Ex01 (10) (other)
light: DIQLTQSPSTLSASVGDRVTITCRASESLDNYGIRFLTWFQQKPGKAPKLLMYAASNQGSGVPSRFSGSGSGTEFTLTISSLQPDDFATYYCQQTKEVPWSFGQGTKVEVKRTVAAPSVFIFPPSDEQLKSGTASVVCLLNNFYPREAKVQWKVDNALQSGNSQESVTEQDSKDSTYSLSSTLTLSKADYEKHKVYACEVTHQGLSSPVCTKSFNRGEC
heavy: EVQLVQSGAEVKKPGSSVKVSCKASGYTITDSNIHWVRQAPGQSLEWIGYIYPYNGGTDYNQKFKNRATLTVDNPTNTAYMELSSLRSEDTAFYYCVNGNPWLAYWGQGTLVTVSS[human IgG1 constant region not spelt out]
modifications: Ex01 linker-drug coupled via cysteine thiol groups; total DAR 10 per antibody; positions not given
notes: also called mono-drug ADC
Consider B3, for which, in assay [3], the binding result is recorded as “binds”.

B4: ANTI-CD33-R01-1 (2)-Ex01 (8) (other)
light: DIQLTQSPSTLSASVGDRVTITCRASESLDNYGIRFLTWFQQKPGKAPKLLMYAASNQGSGVPSRFSGSGSGTEFTLTISSLQPDDFATYYCQQTKEVPWSFGQGTKVEVKRTVAAPSVFIFPPSDEQLKSGTASVVCLLNNFYPREAKVQWKVDNALQSGNSQESVTEQDSKDSTYSLSSTLTLSKADYEKHKVYACEVTHQGLSSPVCTKSFNRGEC
heavy: EVQLVQSGAEVKKPGSSVKVSCKASGYTITDSNIHWVRQAPGQSLEWIGYIYPYNGGTDYNQKFKNRATLTVDNPTNTAYMELSSLRSEDTAFYYCVNGNPWLAYWGQGTLVTVSS[human IgG1 constant region not spelt out]
modifications: R01-1 (2 per antibody) and Ex01 (8 per antibody) linker-drugs coupled via cysteine thiol groups; positions not given
notes: also called ANTI-CD33-R01-1-Ex01; dual-drug ADC
In the case of B4, in assay [3], the binding result was “binds”.

B5: ANTI-CD33-Ex01 (2)-R01-1 (8) (other)
light: DIQLTQSPSTLSASVGDRVTITCRASESLDNYGIRFLTWFQQKPGKAPKLLMYAASNQGSGVPSRFSGSGSGTEFTLTISSLQPDDFATYYCQQTKEVPWSFGQGTKVEVKRTVAAPSVFIFPPSDEQLKSGTASVVCLLNNFYPREAKVQWKVDNALQSGNSQESVTEQDSKDSTYSLSSTLTLSKADYEKHKVYACEVTHQGLSSPVCTKSFNRGEC
heavy: EVQLVQSGAEVKKPGSSVKVSCKASGYTITDSNIHWVRQAPGQSLEWIGYIYPYNGGTDYNQKFKNRATLTVDNPTNTAYMELSSLRSEDTAFYYCVNGNPWLAYWGQGTLVTVSS[human IgG1 constant region not spelt out]
modifications: Ex01 (2 per antibody) and R01-1 (8 per antibody) linker-drugs coupled via cysteine thiol groups; positions not given
notes: also called ANTI-CD33-Ex01-R01-1; dual-drug ADC
For B5, the binding result in assay [3] is listed as “binds”.
